Test results published in paper PMC6919601, “Identification of Plasmodium dipeptidyl aminopeptidase allosteric inhibitors by high throughput screening” (PLoS ONE, 2019).
The whole screen tested about 110,000 compounds, of which about 230 (0.21%) showed an effect of 50% or more. This is one part of the list.

molecular target: DPAP1 (Plasmodium falciparum, UniProt Q8IIJ9); assay: primary screen, percent inhibition; read by cleavage of a fluorogenic dipeptide substrate; higher = more effect of the substance; design: species or system P. falciparum D10 trophozoite lysates; single well
Sequence (Q8IIJ9 whole entry, looked up): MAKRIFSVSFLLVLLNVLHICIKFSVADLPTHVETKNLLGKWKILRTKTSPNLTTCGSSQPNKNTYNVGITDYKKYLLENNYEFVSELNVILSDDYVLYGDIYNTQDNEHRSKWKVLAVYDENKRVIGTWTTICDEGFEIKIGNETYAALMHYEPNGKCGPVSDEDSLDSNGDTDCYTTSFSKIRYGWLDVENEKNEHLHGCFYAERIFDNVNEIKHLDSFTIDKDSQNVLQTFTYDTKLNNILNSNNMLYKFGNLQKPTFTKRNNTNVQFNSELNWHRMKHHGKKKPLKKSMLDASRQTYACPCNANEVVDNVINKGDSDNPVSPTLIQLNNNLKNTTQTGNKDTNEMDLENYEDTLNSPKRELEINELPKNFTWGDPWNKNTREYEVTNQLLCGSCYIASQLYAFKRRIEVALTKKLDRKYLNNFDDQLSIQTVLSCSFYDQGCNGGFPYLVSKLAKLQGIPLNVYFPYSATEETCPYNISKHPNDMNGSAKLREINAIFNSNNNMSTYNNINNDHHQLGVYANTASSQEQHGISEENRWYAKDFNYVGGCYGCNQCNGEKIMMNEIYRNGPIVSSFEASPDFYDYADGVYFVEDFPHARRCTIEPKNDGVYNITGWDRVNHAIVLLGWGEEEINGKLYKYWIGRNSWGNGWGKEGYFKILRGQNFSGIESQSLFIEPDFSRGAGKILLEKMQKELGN
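Further: 30 min substrate incubation versus DMSO and 10 µM JCP410 controls.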

SMILES | % Inhibition @ 10 uM
N#Cc1c(N)nc(SCC(=O)OCc2ccccc2)c(C#N)c1-c1ccccc1 | 4.63%
CC(=O)N1CCC(NCCc2ccc(F)cc2)CC1 | 7.92%
O=C(NCc1ccc2c(c1)OCO2)C1C2C=CC3(CN(Cc4cccs4)C(=O)C13)O2 (stereo not drawn) | 1.07%
CCCC1CCc2c(sc(NC(=O)C3CCCCC3C(=O)O)c2C(N)=O)C1 (stereo not drawn) | 1.34%
O=C(/C=C/c1ccc(Cl)cc1)NCc1ccco1 | 10.2%
Cc1nc2ccc(S(=O)(=O)CCC(=O)NC3CCCc4ccccc43)cc2s1 (stereo not drawn) | 1.95%
COC(=O)C1=C(C(C)=O)C(c2ccccc2F)n2nnnc2N1 (stereo not drawn) | -2.98%
Cc1nn(-c2ccccc2)c2nc(C3CC3)cc(C(=O)NCCc3ccccc3)c12 | -4.7%
O=C(O)CCC(=O)N1CCN(c2ccccc2)CC1 | -2.75%
Cc1cccc(S(=O)(=O)Nc2ccc3c(c2)OCCO3)c1 | -11.5%
COc1cc2c(cc1C(c1ccccc1)(c1ccccc1)C1C=CC=CC1)NC(C)(C)C=C2C (stereo not drawn) | 5.03%
O=C1CC(c2ccccc2)c2c(ccc3ccccc23)N1 (stereo not drawn) | -8.85%
Cc1ccc(CN2CC(C)OC(C)C2)cc1 (stereo not drawn) | 7.2%
Cc1ccc(C)c(S(=O)(=O)Nc2ccc(C(=O)N3CCN(C)CC3)cc2)c1 | -3.77%
CC(C(=O)NCc1cccnc1)n1ccc2cc(S(=O)(=O)N3CCCC3)ccc21 (stereo not drawn) | -0.665%
CCn1c(NC(=O)c2cccc(Cn3cc(Cl)cn3)c2)nc2ccccc21 | 0.64%
O=C1OC(/C=C/c2ccccc2)=NC/1=C\c1cccc2ccccc12 | 5.32%
Cc1ccc(C(=O)N/C(=C/c2ccccc2)C(=O)NCCCC(=O)O)cc1 | -3.33%
CC(=O)CC(C)(C)S(=O)(=O)c1ccc(Cl)c(Cl)c1 | 1.38%
COC(=O)c1c(NC(=O)c2ccccc2OC)sc2c1CCCC2 | 3.04%
O=C(NCCc1ccccc1)c1cc(O)nc2ccc(S(=O)(=O)N3CCOCC3)cc12 | 5.7%
COCC(=O)Nc1nc2nc(C)c(Cl)c(C)n2n1 | 0.401%
Cc1c(O)c(S(=O)(=O)c2ccccc2)c(=O)n(-c2ccccc2)c1-c1ccccc1 | 2.38%
CC(C)(C)C(=O)Nc1ccccc1C(=O)Nc1ccccc1Cl | 2.17%
CC(=O)Nc1ccc(NC(=O)c2ccc(C(C)(C)C)cc2)cc1 | -0.425%
CCCOc1ccc(Cn2cnc3ccccc32)cc1 | 3.27%

SMILES | % Inhibition @ 10 uM
O=C(Nc1nccs1)C1CCCN1S(=O)(=O)c1cccc2nsnc12 (stereo not drawn) | 4.54%
CCc1ncc(C(O)c2ccccc2OC)n1C (stereo not drawn) | 0.812%
COc1ccc(CC(=O)Nc2ccccc2Br)cc1 | 1.41%
Cc1cc(C)n(-c2ncnc3sc(C)c(-c4ccccc4)c23)n1 | 3.47%
O=c1oc2c3c(ccc2c2ccccc12)OCN(Cc1ccc(F)cc1)C3 | -0.808%
Cc1cccc(NC(=O)c2cccs2)n1 | -1.68%
Cc1cc(NS(=O)(=O)c2ccc(NC(=O)c3ccccc3C)cc2)no1 | -3.83%
O=C(Cn1ncc2c1-c1ccccc1OC2)NCCOC12CC3CC(CC(C3)C1)C2 | -2.42%
Fc1ccccc1C1C=C(c2ccccc2OC(F)F)Nc2nnnn21 (stereo not drawn) | 0.219%
O=C(c1cc(-c2ccc(Cl)cc2)nc2ccc(Br)cc12)N1CCOCC1 | -2.32%
COc1ccc2nc(NC(=O)Cn3c(-c4ccccc4)cc(C(C)=O)c3C)sc2c1 | -1.88%
COc1ccc2ccccc2c1C1C(C#N)=C(N)OC2=C1C(=O)CC(C)(C)C2 (stereo not drawn) | 1.03%
CC1CCCC(NC2CCN(CCc3ccccc3)CC2)C1C (stereo not drawn) | -2.03%
CC1=C(C#N)c2nc(N)c(C#N)c(C)c2/C1=C\c1ccc(-c2ccccc2)o1 | -7.09%
Cc1ccc(C)c(Cn2c3ccccc3c3cnn(CC(=O)N4CCC(C)CC4)c(=O)c32)c1 | -3.35%
COc1ccc(OC)c(C2CC(=O)NC(SC)=C2C#N)c1 (stereo not drawn) | -4.76%
C#CCNC(=O)Cn1c2ccccc2[n+]2nc(C)c(C)cc12 | 2.95%
COc1ccccc1NC(=O)c1cccc(C)c1 | 1.63%
COc1ccc(CCNC(=O)CN(c2cc(Cl)ccc2C)S(C)(=O)=O)cc1 | 5.03%
CCNC(=O)/C(=C\c1ccccc1)NC(=O)c1ccccc1Cl | -4.76%
CCCN1C(=O)c2ccc(C(=O)c3ccc(C(=O)O)cc3)cc2C1=O | -3.63%
COc1ccc2nc(NC(=O)c3noc4c3COc3ccc(C)cc3-4)sc2c1 | 2.78%
Cc1cccc(-c2nnc3c4c5c(sc4ncn23)CC(C)CC5)c1 (stereo not drawn) | -3.63%
CCC(C)N1C(=O)S/C(=C/c2cccc(OC)c2)C1=O (stereo not drawn) | -2.98%
COc1ccccc1NC(=O)C1=C(C)NC(SCC(N)=O)=C(C#N)C1c1ccccc1Cl (stereo not drawn) | 7.1%
